Results are given in words; binding and its absence hold for the method and conditions named. Some entries that bind do so weakly or less than the wild type.
What was measured:
[1] = target: T1, neurofibromin EF fragment (1821–2818) (human) (UniProt P21359); assay: SEC-MALS; single purified proteins; Superose-6 Increase or Superdex S-200 10/300 GL, Wyatt Heleos and Optilab T-Rex; BSA as standard; both purified
T1 sequence: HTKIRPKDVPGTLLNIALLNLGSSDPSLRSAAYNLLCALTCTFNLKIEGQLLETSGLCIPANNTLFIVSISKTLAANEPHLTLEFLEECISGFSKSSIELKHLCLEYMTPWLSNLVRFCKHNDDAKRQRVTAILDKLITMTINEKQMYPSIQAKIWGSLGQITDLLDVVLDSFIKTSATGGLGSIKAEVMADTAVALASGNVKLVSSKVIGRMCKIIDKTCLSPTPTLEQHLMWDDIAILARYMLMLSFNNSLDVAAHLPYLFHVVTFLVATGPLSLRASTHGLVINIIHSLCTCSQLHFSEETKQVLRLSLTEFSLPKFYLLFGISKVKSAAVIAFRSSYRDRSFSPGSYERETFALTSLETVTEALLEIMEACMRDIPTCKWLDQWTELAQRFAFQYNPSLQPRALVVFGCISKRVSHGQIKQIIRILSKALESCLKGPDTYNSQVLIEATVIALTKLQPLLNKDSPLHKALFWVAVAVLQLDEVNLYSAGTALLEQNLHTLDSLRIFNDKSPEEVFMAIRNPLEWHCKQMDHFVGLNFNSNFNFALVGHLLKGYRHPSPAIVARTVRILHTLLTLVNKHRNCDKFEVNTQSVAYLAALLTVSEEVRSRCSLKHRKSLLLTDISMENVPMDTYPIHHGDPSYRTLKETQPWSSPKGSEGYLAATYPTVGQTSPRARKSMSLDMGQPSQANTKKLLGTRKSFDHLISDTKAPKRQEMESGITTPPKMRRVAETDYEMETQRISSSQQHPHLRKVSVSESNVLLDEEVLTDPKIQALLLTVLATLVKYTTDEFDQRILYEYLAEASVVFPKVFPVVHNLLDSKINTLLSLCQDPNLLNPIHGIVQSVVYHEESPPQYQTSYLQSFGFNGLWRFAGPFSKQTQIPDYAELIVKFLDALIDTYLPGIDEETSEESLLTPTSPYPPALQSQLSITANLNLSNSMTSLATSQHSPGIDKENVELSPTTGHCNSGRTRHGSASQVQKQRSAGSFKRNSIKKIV

[2] = target: T1, neurofibromin EF fragment (1821–2818) (human); assay: SEC; equimolar mixtures of two purified NF1 fragments on an analytical SEC column, fractions analysed by SDS-PAGE; both purified

B1: neurofibromin EF fragment (1821–2818) (domain or fragment, UniProt P21359-2 1821-2818)
chain: HTKIRPKDVPGTLLNIALLNLGSSDPSLRSAAYNLLCALTCTFNLKIEGQLLETSGLCIPANNTLFIVSISKTLAANEPHLTLEFLEECISGFSKSSIELKHLCLEYMTPWLSNLVRFCKHNDDAKRQRVTAILDKLITMTINEKQMYPSIQAKIWGSLGQITDLLDVVLDSFIKTSATGGLGSIKAEVMADTAVALASGNVKLVSSKVIGRMCKIIDKTCLSPTPTLEQHLMWDDIAILARYMLMLSFNNSLDVAAHLPYLFHVVTFLVATGPLSLRASTHGLVINIIHSLCTCSQLHFSEETKQVLRLSLTEFSLPKFYLLFGISKVKSAAVIAFRSSYRDRSFSPGSYERETFALTSLETVTEALLEIMEACMRDIPTCKWLDQWTELAQRFAFQYNPSLQPRALVVFGCISKRVSHGQIKQIIRILSKALESCLKGPDTYNSQVLIEATVIALTKLQPLLNKDSPLHKALFWVAVAVLQLDEVNLYSAGTALLEQNLHTLDSLRIFNDKSPEEVFMAIRNPLEWHCKQMDHFVGLNFNSNFNFALVGHLLKGYRHPSPAIVARTVRILHTLLTLVNKHRNCDKFEVNTQSVAYLAALLTVSEEVRSRCSLKHRKSLLLTDISMENVPMDTYPIHHGDPSYRTLKETQPWSSPKGSEGYLAATYPTVGQTSPRARKSMSLDMGQPSQANTKKLLGTRKSFDHLISDTKAPKRQEMESGITTPPKMRRVAETDYEMETQRISSSQQHPHLRKVSVSESNVLLDEEVLTDPKIQALLLTVLATLVKYTTDEFDQRILYEYLAEASVVFPKVFPVVHNLLDSKINTLLSLCQDPNLLNPIHGIVQSVVYHEESPPQYQTSYLQSFGFNGLWRFAGPFSKQTQIPDYAELIVKFLDALIDTYLPGIDEETSEESLLTPTSPYPPALQSQLSITANLNLSNSMTSLATSQHSPGIDKENVELSPTTGHCNSGRTRHGSASQVQKQRSAGSFKRNSIKKIV
Question: How did the binding [1] turn out when B1 was run?
Answer: Its binding is “binds weakly”.

B2: neurofibromin D domain (1541–1820) (domain or fragment, UniProt P21359-2 1541-1820)
chain: LNLTSSKFEEFMTRHQVHEKEEFKALKTLSIFYQAGTSKAGNPIFYYVARRFKTGQINGDLLIYHVLLTLKPYYAKPYEIVVDLTHTGPSNRFKTDFLSKWFVVFPGFAYDNVSAVYIYNCNSWVREYTKYHERLLTGLKGSKRLVFIDCPGKLAEHIEHEQQKLPAATLALEEDLKVFHNALKLAHKDTKVSIKVGSTAVQVTSAERTKVLGQSVFLNDIYYASEIEEICLVDENQFTLTIANQGTPLTFMHQECEAIVQSIIHIRTRWELSQPDSIPQ
Question: B2 was tested. Which binding [2] did it give?
Answer: The binding was “no binding”.
